Measured values taken from PMC9574860, “Chemical Toolkit for PARK7: Potent, Selective, and High-Throughput” (Journal of Medicinal Chemistry, 2022).
In all, about 7,900 compounds went through this assay and about 400 (5.1%) showed an effect of 50% or more. The list shows a part of the results.

Target: Parkinson's disease protein 7 (PARK7/DJ1) (human, UniProt Q99497)
Test: primary screen, percent inhibition; read as competition with a fluorescent probe by fluorescence polarization; higher = more effect of the substance
Details: 100 µM
In short: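 Fluorescence-polarization probe displacement (JYQ-107, 20 nM final, 2 h) after 2 h preincubation of PARK7 (0.2 μM final) with each fragment at 100 μM final. Read-out ex/em 480/520 nm; remaining activity derived from FP signal loss relative to reference controls.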

Sequence of Parkinson's disease protein 7 (PARK7/DJ1) (Q99497 whole entry, looked up): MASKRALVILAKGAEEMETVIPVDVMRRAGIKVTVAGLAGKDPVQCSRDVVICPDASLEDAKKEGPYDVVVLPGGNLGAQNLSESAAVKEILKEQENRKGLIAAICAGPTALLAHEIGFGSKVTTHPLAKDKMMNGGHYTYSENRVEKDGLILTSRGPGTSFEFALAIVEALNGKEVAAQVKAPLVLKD

SMILES	Inhibition % [%]
Cl.Cn1ncc2ncc(B3OC(C)(C)C(C)(C)O3)cc21	29.1
CC1CC(Sc2nccc(C(F)(F)F)n2)C(=O)O1 (centres unmarked)	3.32
C=CC(=O)N1CCOC(COc2ccc(F)c(F)c2)C1 (centres unmarked)	1.27
CS(=O)(=O)OC1CCOC2(CCOCC2)C1 (centres unmarked)	9.05
Cc1ccc(S(=O)(=O)OC2C=CS(=O)(=O)C2)cc1 (centres unmarked)	4.24
N#Cc1nc(-c2ccc(Cl)cc2Cl)oc1N	-2.51
C#CCNC(=O)CNc1ccc(Cl)c(C#N)n1	2.84
C=CC(=O)NC(C)CN1CCCC(C)C1 (centres unmarked)	2.15
O=C(Cn1c(-c2ccccc2)noc1=O)N1CCCC1	0.898
C=CC(=O)N1CC(C)(C)C1c1nccn1CC1CC1 (centres unmarked)	13.4
C=CC(=O)N1CCOC(CCF)C1 (centres unmarked)	7.61
Cc1nccn1S(=O)(=O)c1ccc(C(C)(C)C)cc1	0.878
O=C1SCCN1CC(=O)N1CCOc2ccccc21	2.45
COCOc1ccc(C#N)cc1B1OC(C)(C)C(C)(C)O1	4.19
OB(O)c1cccc(-c2cc[nH]n2)c1	3.3
O=C(Nc1ccn(CC(F)(F)F)n1)c1cccnc1S	5.34
N#Cc1ncccc1C(=O)O	8.09
C=CC(=O)N1CCSc2c1c(C)nn2C	19.9
O=C(CCl)NC(c1ccccc1)c1nccs1 (centres unmarked)	18.1
Cc1cc(=O)oc2cc(OCC3CO3)ccc12 (centres unmarked)	7.44
N#CN(Cc1nnc(C2CCC2)o1)c1ccc(F)c(Cl)c1	-0.412
CCOc1ccc(C(=O)CCl)cc1	84.9
C=CC(=O)NC1C(C)C(OC)C12CCC2 (centres unmarked)	50
COc1ccc2nc(SC3CC(C)OC3=O)[nH]c2c1 (centres unmarked)	6.64
O=C(c1cccnc1S)N1CCC(n2cccn2)CC1	14.1

SMILES	Inhibition % [%]
Cn1cnc2ccc(S(=O)(=O)F)cc21	43.4
Cl.O=C(CCl)NCC(c1ccccc1Cl)N1CCCC1 (centres unmarked)	3.25
Sc1ncnc2ncncc12	6.65
C#CCN1CCN(c2oc(-c3ccco3)nc2C#N)CC1	53.7
C=CC(=O)NCCc1cn(C)nn1	10.4
C1COCCN1.Cc1cc(=O)[nH]c(S)c1C#N	8.07
C=CC(=O)NCCc1nc(-c2ccc(F)cc2)c[nH]1	6.03
O=S(=O)(F)CCN1CCSc2ccccc21	2.53
CCOc1ccc(S(=O)(=O)n2nc(C)cc2C)c(C)c1C	7.32
COc1ccc(Cl)cc1NC(=O)CCl	14.9
CCN(Cc1ccc(OC)c(F)c1)C(=O)CCl	10
C=CC(=O)Nc1cccc2c1COCC2	-1.36
N#Cc1ncn(CC(=O)c2ccc(F)cc2)n1	3.22
CC1NC(=O)CCC1NC(=O)c1ccc(C#N)[nH]1 (centres unmarked)	7.12
Cc1ccc(C=C(C#N)C(=O)NC(C)C)o1	7.55
CC(C)(C)OC(=O)n1cc(B2OC(C)(C)C(C)(C)O2)c2cnccc21	7.25
C=CC(=O)N1CCS(=O)(=O)c2ccccc2C1	7.33
COc1cccc(S(=O)(=O)CCCl)c1	3.15
O=S1(=O)C=C(C(F)(F)F)CCC1	9.12
C=CC(=O)N1CCCC1c1ccc(OC)c(F)c1 (centres unmarked)	5.7
CC1(C)OB(c2cccc3ncoc23)OC1(C)C	31
O=C1N(c2ccc3c(c2)OCO3)C(c2ccco2)C1(F)F (centres unmarked)	8.07
Cc1cc(NC(=O)c2cccnc2S)c[nH]c1=O	22.1
C=CC(=O)NCc1cccc(C(=O)NC(C)(C)C)c1	9.53
C=CC(=O)NC1CCc2sccc2NC1=O (centres unmarked)	8.71

SMILES	Inhibition % [%]
CC1CC(Sc2ccc(C(F)(F)F)cn2)C(=O)O1 (centres unmarked)	11.2
COCc1ccccc1CNC(=O)CCl	10.3
CC1(C)OB(c2cccc3ccoc23)OC1(C)C	3.59
COc1nscc1B1OC(C)(C)C(C)(C)O1	20.8
O=C(CCl)NCc1ccc2c(c1)OCO2	14
COC1CCCCC1Nc1ccc(C#N)nc1 (centres unmarked)	4.9
O=c1onc(-c2cccnc2)n1C1C=CCCC1 (centres unmarked)	54.8
Cc1ccc(C2=NC(=Cc3cnn(C)c3)C(=O)O2)cc1	10.1
N#Cc1ccc(Cl)cc1N1CCC(C2OCCO2)CC1	2.51
C=CC(=O)Nc1ccc(C2CC2)cc1	-3.62
c1ccc(SCC2CO2)cc1 (centres unmarked)	8.47
Cc1coc(Sc2cnc(C#N)cn2)n1	8.33
O=S(=O)(F)c1ccccc1C(F)(F)F	11.3
COc1cccc(N(C(C)=O)C2C=CS(=O)(=O)C2)c1 (centres unmarked)	7.7
Cn1cc(C=CC(=O)N2CCCCCC2)c(=O)n(C)c1=O	6.55
Cc1ccc(NC(=O)CCl)cc1Br	75
C=CC(=O)NC1(C2CC2)CCOCC1	7.04
C=CC(=O)N1CCC2(C1)OCc1ccccc12 (centres unmarked)	9.73
C=CC(=O)NC1CCN(c2cccc(Cl)c2)C1 (centres unmarked)	2.26
CC(Nc1ccc(C#N)nc1)c1ccncc1 (centres unmarked)	8.24
CC1CCCCC1NC(=O)Cn1cnc(C#N)n1 (centres unmarked)	5.45
O=C(NCC1CC1)Oc1ccccc1	10.1
C=CC(=O)N(CC)C1CCOC(C)(C)C1 (centres unmarked)	8.38
COc1ccc(C=C(C#N)C(N)=O)c(Cl)c1OC	3.63
O=c1c2ccccc2nc(S)n1C1CCOCC1	2.99

SMILES	Inhibition % [%]
C=CC(=O)NCC1(OC)CCOC1 (centres unmarked)	1.62
N#Cc1nnc(-c2ccccc2)o1	4.85
C=CC(=O)NC1(CF)CCOCC1	4.75
CC(c1ccc(F)cc1)N(C)C(=O)CCl (centres unmarked)	96.3
CN(C)C(=O)CN1CCN(C(=O)CCl)CC1.Cl	13
C=CC(=O)NCc1nnc(C(C)(C)C)s1	10.4
COC1CCN(c2nc(C#N)c(Cl)s2)CC1	7.16
COc1ccc(CNC(=O)CC2C=CS(=O)(=O)C2)cc1 (centres unmarked)	-0.242
O=C(C=Cc1cnn(-c2ccccc2)c1)N1CCC1	12.2
CC1(C)OB(C2=CCCOC2)OC1(C)C	8.59
O=C(O)C=CC(=O)Nc1ccc(F)c(Cl)c1	8.72
CCN(C(=O)CCl)C1CCS(=O)(=O)C1 (centres unmarked)	10.9
C=CC(=O)N1CCC2COCC2C1 (centres unmarked)	6.41
CC(O)Cn1c(S)nc2ccccc2c1=O (centres unmarked)	9.62
CC1(C)OB(c2ccc3sccc3c2)OC1(C)C	1.89
O=C(C=Cc1nc2ccccc2s1)N1CCC1	6.59
O=C(CCl)Nc1ccccc1-c1ccccc1	8.41
CCN(Cc1ccc(C#N)cc1F)C(=O)CCl	16.8
C=CC(=O)NCC1(N(C)C)Cc2ccccc2C1	10.8
C=CC(=O)NC(C)C1CCCN(C2CCC2)C1 (centres unmarked)	0.724
N#Cc1cc(C2CC2)ccn1	4.67
C=CC(=O)N1CCOCC1CC1CCCO1 (centres unmarked)	4.78
CC1(C)OB(c2ccc(F)c(C(F)(F)F)c2)OC1(C)C	1.74
CCn1c(S)nc2ccc(F)cc2c1=O	0.493
N#CC(=Cc1ccco1)C(=O)NC1CC1	7.63

SMILES	Inhibition % [%]
CS(=O)(=O)OCC1CCc2ccccc21 (centres unmarked)	10.7
Cc1cnn(CC2CN(C3CC(C)OC3=O)CCO2)c1 (centres unmarked)	5.46
CC(C)(C)C(NC(=O)CCl)c1cccs1 (centres unmarked)	7.07
O=c1[nH]c(Cc2ccncc2)no1	6.48
NC(=O)c1cccnc1S	4.97
CSc1cccnc1C#N	8.15
O=C1NC(=O)C(CS(=O)(=O)F)N1 (centres unmarked)	69.7
COCCCn1c(S)nc2ccccc2c1=O	10.4
CC(C)(C)c1ccc(-c2csc(NC(=O)CCl)n2)cc1.Cl	2.6
C1C2CC3CC1CC(C2)C31CO1 (centres unmarked)	5.19
C=CC(=O)NC1(c2nc(C)cs2)CCOCC1	-0.88
C=CS(=O)(=O)c1cccc(C#N)c1	6.17
C=CC(=O)N1CCC(c2ccccc2)CC1	5.28
C=CC(=O)N1CCS(=O)(=O)[C@@H](C)C1	4.38
O=S(=O)(F)c1cc2c(Br)cccc2s1	8.7
O=C(c1cccc(F)c1)N1CCCCC1C1OCCO1 (centres unmarked)	4.7
CNC(=O)c1c(C)nc(S)c(C#N)c1-c1ccco1	5.07
Cl.O=C(CCl)N1CCN(Cc2c(F)cccc2Cl)CC1	4.23
Cc1cc(S(=O)(=O)n2cccn2)c(C)cc1Cl	-0.661
CCc1nn(C)cc1NS(=O)(=O)c1cccc(S(=O)(=O)F)c1	95.4
O=C(CCl)NCC#Cc1ccccc1	1.08
C=CC(=O)N1CCn2cccc2C1CC (centres unmarked)	2.16
CC1CC(N2CCN(Cc3cccc(O)c3)CC2)C(=O)O1 (centres unmarked)	4.59
C=CC(=O)N(C)C1CCC(=O)N(C)C1 (centres unmarked)	2.89
O=S(=O)(F)c1ccc(S(=O)(=O)Nc2cccnc2O)cc1	8.42
